Measured values taken from a compilation of properties of binary mixtures (doi:10.1021/ie5008568).
Some of these densities may be calculated back from excess volumes.

Experiment: xn = mol fraction of the nth substance listed
Details: 100 kPa

CCCC[n+]1ccn(C)c1.O=S(=O)([N-]S(=O)(=O)C(F)(F)F)C(F)(F)F + OCC(F)(F)F
x2 = 0
Details	mass density [kg/m3]
283.15 K	1450.6
293.15 K	1440.7
313.15 K	1421.1
323.15 K	1411.5
333.15 K	1402.1

OCC(F)(F)F + CC[n+]1ccn(C)c1.F[B-](F)(F)F
mass density [kg/m3]
Details	x1 = 0.1206	x1 = 0.2915	x1 = 0.5217	x1 = 0.7181	x1 = 0.9009	x1 = 1
293.15 K	1291.6	1302.8	1321.9	1343.6	1373.7	–
303.15 K	1283.6	1294.2	–	1332.1	–	1372.8
313.15 K	1275.7	1285.8	1302.6	1320.7	–	–
323.15 K	1268	1277.5	1293.1	1309.4	–	–
333.15 K	1260.3	1269.4	1283.7	–	–	–

OCC(F)(F)F + CCCC[n+]1ccn(C)c1.O=S(=O)([N-]S(=O)(=O)C(F)(F)F)C(F)(F)F
mass density [kg/m3]
Details	283.15 K	293.15 K	303.15 K	313.15 K	323.15 K	333.15 K
x1 = 0.0991	1449	1439	1429.1	1419.3	1409.7	1400.1
x1 = 0.2953	1446	1435.6	–	1415	–	1395
x1 = 0.5341	1440.5	–	–	–	1396.5	1385.7
x1 = 0.6727	1435.9	–	1412.1	1400.4	–	1377
x1 = 0.9	1422.6	1408.4	1394.1	1379.6	1365.1	1350.4
x1 = 1	1406.9	1390.1	1372.8	1355	1336.8	1318.2

CC[n+]1ccn(C)c1.F[B-](F)(F)F + OCC(F)(F)F
x2 = 0
Details	mass density [kg/m3]
293.15 K	1284.7
303.15 K	1277
333.15 K	1254.5
